The data set deals with ATP. The data set is described as follows: switch fluorescence ratio, 500 uM ATP over buffer (Cy3 cluster intensity, sum of 5 cycles each) (fold (ratio)); higher = stronger signal-on switching upon ATP binding; sequences stand for … in TCGTCGGCAGCGTCAGATGTGTATAAGAGACAGTTTTTTTTTTTTTTTTTTTTTTTTT…TC. Particulars: aptamer strand: ATP DNA aptamer (quencher-CACCTGGGGGAGTATTGCGGAGGAAGG + anchor), 100 nM annealed; ATP concentration: 500 uM; one replicate. Put shortly:
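Five buffer/ATP imaging cycles were run on Cy3-labelled switching-strand clusters on a modified Illumina MiSeq flow-cell, with NaOH stripping and re-annealing between cycles. In each cycle, clusters annealed to 100 nM quencher-labelled ATP aptamer were imaged in selection buffer, then after 15 min with 500 uM ATP at 22 °C. Per cluster, the fluorescence ratio is summed target-cycle over summed buffer-cycle Cy3 intensity, averaged per switch-domain sequence. Only clusters within 100-1000 RFU were kept.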

Sequences with one replicate were seen in a single cluster, so their values are uncertain.

The text below walks through data of the supplement of paper PMC10126150.
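Note: ATP exposure 15 min at 22 °C before imaging.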

On to AACGTGACT, for which the switch fluorescence ratio was 1.33. For GCTGACGCGG the value was 1. As to ACTTTCGGCG, the switch fluorescence ratio is 1.09. Turning to AGTGCAAACT, the switch fluorescence ratio is 0.993. Turning to GTAGATATAC, the switch fluorescence ratio was 1.54. For ACAGGGATTA the value was 0.999. In the case of CGCTGCCCCT, the switch fluorescence ratio was 1.03.

CTAGTCATTG: the switch fluorescence ratio amounted to 0.949. For GTGGCATGCG, the switch fluorescence ratio worked out at 1.01. As for TAACTAAAAT, the switch fluorescence ratio came out at 0.998.

For the sequence GGGATCCAGA, the switch fluorescence ratio was 0.968. Consider GAGATGTGCC, for which the switch fluorescence ratio turned out to be 0.956.

As to GTCGCCAGGG, the switch fluorescence ratio was 1.02.

With GGGAGTCGGT, the switch fluorescence ratio is 1.02. Regarding GGGGTATAAT, the switch fluorescence ratio is 0.989. For GTTTCGACAT the value was 1.03.

In the case of CGTCTTGGG, the switch fluorescence ratio came out at 0.972. Regarding AGAGGGTGT, the switch fluorescence ratio is 1.09. Take CTATGAACCA: the switch fluorescence ratio was found to be 1.05. For the sequence ATTAAACTCG, the switch fluorescence ratio amounted to 0.909. Regarding TTGCCCCGCG, the switch fluorescence ratio worked out at 1.09.

AGCCTTCGAT: the switch fluorescence ratio was found to be 1.08. For AATAGTGTG the value was 0.994. Turning to GTAGGCTACT, the switch fluorescence ratio was determined as 1.03. Take AAGTGATAA: the switch fluorescence ratio worked out at 1.02. With CAAACGAGGG, the switch fluorescence ratio worked out at 1.01. With ATCAGGGGTG, the switch fluorescence ratio is 1.07. With GAAGTAGGTT, the switch fluorescence ratio was found to be 1.03.

As for AGGAGAGAAG, the switch fluorescence ratio came out at 1.03. On to GCAGGCGTCC, for which the switch fluorescence ratio came to 1.06.

In the case of CCACCAGGTT, the switch fluorescence ratio worked out at 4.1.

For the sequence ATGTATGTAG, the switch fluorescence ratio was 0.994. As to ATGTGAAAAT, the switch fluorescence ratio is 1.02. Turning to TAGGATGCCT, the switch fluorescence ratio is 1.07.

CAATCTGGTT: the switch fluorescence ratio amounted to 1.02. Regarding CCCCCGGGGA, the switch fluorescence ratio was 1.25. For GAAGTTACAA the value was 1.02; for CCATATGTAT, 0.987; for GGGAGATAGT, 1. For GCAATAACGT, the switch fluorescence ratio came to 1.42. With ATTTTAATT, the switch fluorescence ratio was found to be 1.01. For GGGCGTATAG, the switch fluorescence ratio was 1.07. As to CTAAGAGGGT, the switch fluorescence ratio was 0.987. On to ACCTCACGGA, for which the switch fluorescence ratio was 1.56. In the case of CCTTGTTGGG, the switch fluorescence ratio was 0.998. On to GTTGTAATAC, for which the switch fluorescence ratio came to 3.33.

Turning to CGTATTCCCA, the switch fluorescence ratio was found to be 0.967. For TAGCTTACAG the value was 1.08; for GAAATATTCT, 1.01; for AGCATCCTT, 0.971. Take AGCGCCGTAT: the switch fluorescence ratio stood at 1.04.

On to AGTATCTGTA, for which the switch fluorescence ratio is 0.963.

For the sequence CATAGGGAGG, the switch fluorescence ratio came out at 0.965. As for GTAATCTGGA, the switch fluorescence ratio was 1.14. Consider TGGTAGCATG, for which the switch fluorescence ratio was determined as 0.984. As to CGTACTCTGT, the switch fluorescence ratio worked out at 0.993. CCTAAATATA: the switch fluorescence ratio is 1.29.

Turning to CTTAATTGC, the switch fluorescence ratio came out at 0.977. In the case of GAAGGCTTAT, the switch fluorescence ratio worked out at 0.993. For GGGACGTACT the value was 1.53. Regarding TATCCTATTG, the switch fluorescence ratio is 0.982.

For CGACCGGCTG, the switch fluorescence ratio was 1.04. Regarding GCCACATGAT, the switch fluorescence ratio came out at 0.98. For TCAGCTTCCG the value was 1.18; for CCGTCTATCT, 1.14; for TATAGGAAAG, 1.01. Consider GCCCCTGATG, for which the switch fluorescence ratio came out at 1.19. As to AGGTAAGCAG, the switch fluorescence ratio was 0.989. For AACTGCCTAA the value was 0.979. For CTTGACCGTC the value was 1.1; for GCCAGTACTT, 1. AGCGACCTTC: the switch fluorescence ratio was determined as 1.47.

Regarding TTGCATGCAT, the switch fluorescence ratio came out at 1.01.

On to AGAGTTGGCA, for which the switch fluorescence ratio was found to be 1.01.

GGATCGGATG: the switch fluorescence ratio is 0.983. Take CCCGGATGAG: the switch fluorescence ratio is 1.02.

With GCCCAACAG, the switch fluorescence ratio was found to be 1.04.

On to GGCCCGGTTC, for which the switch fluorescence ratio was found to be 1.04.
